The full ranking holds about 33,000 sequences; the median of “E-score (-0.5 to 0.5)” is about -0.041, and the highest 2% start at about 0.37. Some of the results follow.
Molecular target: T1, Ecm22 (UniProt Q05958)
T1 sequence: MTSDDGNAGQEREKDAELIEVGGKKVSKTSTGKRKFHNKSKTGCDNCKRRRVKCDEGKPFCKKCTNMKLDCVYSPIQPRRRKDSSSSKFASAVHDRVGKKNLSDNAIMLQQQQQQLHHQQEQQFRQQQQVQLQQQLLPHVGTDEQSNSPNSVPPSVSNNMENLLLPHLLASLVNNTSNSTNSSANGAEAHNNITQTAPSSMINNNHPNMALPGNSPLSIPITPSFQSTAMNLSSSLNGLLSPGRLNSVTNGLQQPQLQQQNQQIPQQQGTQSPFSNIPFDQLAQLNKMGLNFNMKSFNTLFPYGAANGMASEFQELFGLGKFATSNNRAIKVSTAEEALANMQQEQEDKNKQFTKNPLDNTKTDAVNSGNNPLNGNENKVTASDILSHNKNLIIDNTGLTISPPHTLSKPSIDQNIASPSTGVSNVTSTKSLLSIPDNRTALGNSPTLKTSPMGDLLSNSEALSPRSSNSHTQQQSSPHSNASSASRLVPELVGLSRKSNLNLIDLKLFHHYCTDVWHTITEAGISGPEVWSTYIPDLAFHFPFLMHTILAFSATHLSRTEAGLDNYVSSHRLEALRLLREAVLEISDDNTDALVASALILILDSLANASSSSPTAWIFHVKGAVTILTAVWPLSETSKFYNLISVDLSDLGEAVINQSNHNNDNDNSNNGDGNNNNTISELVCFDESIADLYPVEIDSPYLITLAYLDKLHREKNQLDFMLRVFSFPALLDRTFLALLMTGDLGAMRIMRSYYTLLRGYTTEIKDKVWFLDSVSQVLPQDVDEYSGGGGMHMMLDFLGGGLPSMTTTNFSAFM
Experiment: PBM E-score (8-mer binding enrichment) (E-score (-0.5 to 0.5)); higher = stronger / more preferred TF binding; most listed sequences are background and not binding sites
Settings: protein concentration: 200 nM; construct: GST-full length
Experimental: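 Universal 'all 10-mer' protein binding microarrays (Agilent AMADID 015681) probed with GST-tagged S. cerevisiae TFs (full-length or DBD) made by in vitro transcription/translation (PURExpress), about 100-200 nM. Bound TF was detected with fluorescent anti-GST. Each ungapped 8-mer (which stands for itself and its reverse complement) is scored by the PBM enrichment score (E-score), a modified Wilcoxon-Mann-Whitney statistic from -0.5 to +0.5, computed with the Universal PBM Analysis Suite. Scale: above 0.35 generally sequence-specific binding.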

Row | Sequence | PBM E-score
1 | AGGCCTAG | -0.272
2 | GCATTATA | -0.0633
3 | CTGCAGAC | -0.0407
4 | ATAAATAG | 0.0526
5 | CCAGATAC | 0.0732
6 | GCTCAATA | -0.0598
7 | TCCTGTCA | 0.143
8 | CTAGGAAG | -0.309
9 | AAGTTCGC | 0.21
10 | ACTGCCCC | -0.227
11 | TCAGTAGA | -0.126
12 | GGAATGAA | -0.0789
13 | AAGTACAT | 0.0633
14 | CTTTAGAC | -0.147
15 | GTCTATTA | 0.00854
16 | CACCCGTG | -0.0774
17 | CGTGGTTC | 0.0382
18 | AATTCCCC | -0.16
19 | GATGACTA | -0.123
20 | ATACTAGC | 0.144
21 | CAATGTAC | 0.00988
22 | GGATCAAC | -0.00834
23 | GATTTCCC | 0.0284
24 | CGGCTAAC | 0.0416
25 | AGCGGACT | -0.175

Row | Sequence | PBM E-score
26 | AACGTTAA | 0.184
27 | ATTAGGAA | -0.0155
28 | ATCCGGAC | -0.158
29 | GATAGAAC | 0.059
30 | ATTGCTGA | -0.0619
31 | AGATCTTC | -0.0142
32 | CCCGGGGA | -0.286
33 | ATAAAAAT | -0.168
34 | CTGTAATA | 0.139
35 | ATTGGTTG | -0.164
36 | AAGAACGC | 0.118
37 | CTCGAGCC | -0.0532
38 | GAATGTAC | 0.133
39 | ATTTACAC | -0.162
40 | CCCCATTA | -0.249
41 | CCGGCCAG | -0.176
42 | AACGTCCT | 0.0799
43 | AATTGCGA | 0.134
44 | CGGTAGAC | 0.0507
45 | TAACACAA | 0.0687
46 | AGACAAGA | -0.0237
47 | ACAGGTCC | -0.142
48 | AGCTTGGA | -0.13
49 | AATATCAA | -0.0357
50 | GAAGATTC | -0.00872

Row | Sequence | PBM E-score
51 | AAGAGTTC | 0.00406
52 | GATCGAAA | 0.182
53 | GAAAGTTC | -0.187
54 | ATAAGGTA | -0.0216
55 | TCCTTCGA | -0.104
56 | GTACTCTA | -0.0371
57 | GCTGCCGA | -0.0547
58 | CCGCCTAA | -0.0442
59 | AGTAGGTA | -0.00972
60 | ACAACGCT | -0.067
61 | GAACACTC | 0.185
62 | CTTTCGCC | -0.0432
63 | CTCCGCTA | -0.123
64 | AAGTCCGC | -0.026
65 | GCTACCGA | 0.0522
66 | CGCCTGCC | -0.188
67 | AGGTCCGG | 0.0409
68 | ACAGAACG | 0.239
69 | ACGCTGCA | -0.0508
70 | CCGAGAAC | 0.204
71 | AGGATCCA | -0.149
72 | GCTCTCAC | -0.367
73 | CCTCACCC | -0.0442
74 | AAGCTCAT | -0.0639
75 | ATATCGTC | 0.0456

Row | Sequence | PBM E-score
76 | GCAAATCA | 0.0219
77 | AACGCTAC | 0.0319
78 | AACCTCTT | -0.0421
79 | CAAAACTA | -0.114
80 | AATCCTCA | -0.147
81 | AAGCTGCC | -0.241
82 | CGCTATCA | -0.00413
83 | CAACCGTA | 0.271
84 | AAATAGCG | -0.0547
85 | GGATCGAA | 0.251
86 | GACGCACC | -0.0514
87 | AGGCCTAA | -0.124
88 | ACACCTTG | -0.0867
89 | AACTCCCA | -0.108
90 | CCGTTTTC | 0.102
91 | CCCCTGTC | -0.162
92 | ATAATATG | 0.187
93 | ACCTTGTA | -0.0248
94 | CACGAAAA | 0.153
95 | GTCGGTGA | 0.0362
96 | GATCCCTA | -0.0622
97 | CTGCGCCC | -0.369
98 | ACTTGATA | -0.0792
99 | CGATTGCG | 0.026
100 | CCTTTACC | -0.14

Row | Sequence | PBM E-score
101 | AGTGGTGA | -0.115
102 | AGCCATAG | -0.207
103 | ACAAAACA | -0.00876
104 | CCGGACGC | 0.0555
105 | GTTATAAA | -0.0292
106 | CTCACAGA | -0.151
107 | ATGTAGTG | -0.21
108 | AGTTGCAG | -0.189
109 | AAGACTTG | -0.0262
110 | GTTAGTAA | 0.0296
111 | ATGAAAGA | 0.0262
112 | CATGCCAA | -0.0285
113 | TTACTCAA | -0.0047
114 | AACTCCCG | 0.237
115 | ACTCGGCC | -0.0187
116 | CTTCCCCC | -0.308
117 | ATGCATAC | 0.154
118 | CGACTCCG | 0.103
119 | TGGGCAAA | -0.166
120 | ACGCGTTC | 0.18
121 | AAATAATC | -0.0438
122 | CTAAAATA | -0.0259
123 | AAAGCGCA | -0.0875
124 | GAGCCATC | -0.0807
125 | CCCTCCCG | -0.137

Row | Sequence | PBM E-score
126 | CCACGAAA | -0.0672
127 | CCGGGCCA | -0.282
128 | GTAAAGCA | 0.0968
129 | ATAAATAC | 0.206
130 | GCGGGCGA | -0.0412
131 | CGAAACGA | 0.424
132 | AAGTTTTG | -0.00804
133 | CAGTCGGA | -0.067
134 | ATAGATGC | 0.0571
135 | AGATCTAC | 0.113
136 | GACCCGTA | 0.24
137 | CTACTAAA | -0.0909
138 | CTTGGTTA | -0.106
139 | CTGAGTGC | -0.0819
140 | CGGAGATC | 0.088
141 | CAACTCTA | -0.209
142 | TATGATGA | 0.00697
143 | GTCAATAA | 0.0675
144 | ACCTTATG | -0.146
145 | CGCTACAA | 0.0321
146 | AAGTAATG | -0.068
147 | AGTTCGCC | 0.0208
148 | ATGTGGCA | -0.097
149 | AATGCTAG | -0.149
150 | CGGACGGC | 0.0309

Row | Sequence | PBM E-score
151 | AAGCGATA | 0.168
152 | AGCCTGAT | -0.168
153 | GGCGTCGA | -0.0169
154 | ATCGTCCA | -0.241
155 | ATACGCAC | 0.292
156 | TGTGGGAA | -0.114
157 | CCGACCTC | 0.00198
158 | AATCATTG | -0.13
159 | CTCAGACA | -0.152
160 | ACGCCGTC | -0.0565
161 | ACTAATGC | 0.0211
162 | AAGAACTG | -0.0848
163 | CTCTTCTA | -0.0431
164 | ACGTGCGG | -0.046
165 | ATATCCTA | -0.186
166 | CCCCACGG | -0.132
167 | GGATTTAC | 0.0417
168 | GAAGGTAA | 0.0431
169 | CTCAGATC | -0.108
170 | GAATCTCA | -0.00523
171 | CCACGACC | 0.00845
172 | GCTACATA | -0.0814
173 | AGCTACTC | -0.0704
174 | AGCTCGGC | 0.164
175 | CACATTAC | 0.114

Row | Sequence | PBM E-score
176 | AAAATGGG | -0.234
177 | CGGTCATC | 0.0497
178 | AGCCACTA | -0.0252
179 | GAGAAGGA | -0.105
180 | CACTATAG | -0.118
181 | CTGGCGTC | 0.0205
182 | CACCCGAC | 0.0849
183 | CCTTTTCA | -0.111
184 | AAGCGCCA | -0.145
185 | ATTCCCTA | -0.152
186 | AGTCCAAA | -0.108
187 | ATTGTTGC | -0.109
188 | ACTTCAAT | -0.101
189 | CCAAAACG | 0.0808
190 | TACACCAA | -0.0768
191 | AAGAGCCC | -0.117
192 | CCACAGGA | -0.182
193 | AATAGTCT | -0.0732
194 | AGGCCACT | -0.176
195 | TCGCAGAA | 0.0357
196 | AACTGCCC | -0.0941
197 | GCAGTTGA | -0.0451
198 | CCCCAGCA | -0.237
199 | TACCAAGA | 0.0174
200 | ATGTCGGC | -0.148

Row | Sequence | PBM E-score
201 | ACAGTTTC | 0.035
202 | AAAGGGCT | -0.324
203 | ACGCGCGT | 0.222
204 | AGCCTCGG | 0.0847
205 | TATTATAA | -0.0191
206 | ACGTACAC | 0.254
207 | AGATGTCA | -0.0988
208 | GGTTATGA | 0.0407
209 | AAGCTCCC | -0.1
210 | GGTGATCA | -0.0994
211 | CAGGCTCA | -0.129
212 | TACTGAAA | 0.127
213 | AGACATTG | -0.268
214 | ACGGAGTA | 0.098
215 | AACCAGTT | 0.0492
216 | AGCGCCGG | 0.0591
217 | GGCTAAGA | -0.218
218 | CGTACACC | 0.37
219 | GCCCCGAC | -0.0731

Source: the supplement of paper PMC3334620
